From article PMC4336329 (PLoS ONE, 2015)
In all, about 310,000 compounds went through this assay and about 14,000 (4.5%) showed an effect of 50% or more. Effects have a minus sign here. This is one part of the list.

These molecules were tested against human ether-à-go-go-related gene (hERG) potassium channel (human, UniProt Q12809) (assay: primary screen, population patch clamp on CHO cells stably expressing hERG).
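Further: peak tail current of the secondary pulse compared with the same well before compound.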

Chain of human ether-à-go-go-related gene (hERG) potassium channel (Q12809 whole entry, looked up): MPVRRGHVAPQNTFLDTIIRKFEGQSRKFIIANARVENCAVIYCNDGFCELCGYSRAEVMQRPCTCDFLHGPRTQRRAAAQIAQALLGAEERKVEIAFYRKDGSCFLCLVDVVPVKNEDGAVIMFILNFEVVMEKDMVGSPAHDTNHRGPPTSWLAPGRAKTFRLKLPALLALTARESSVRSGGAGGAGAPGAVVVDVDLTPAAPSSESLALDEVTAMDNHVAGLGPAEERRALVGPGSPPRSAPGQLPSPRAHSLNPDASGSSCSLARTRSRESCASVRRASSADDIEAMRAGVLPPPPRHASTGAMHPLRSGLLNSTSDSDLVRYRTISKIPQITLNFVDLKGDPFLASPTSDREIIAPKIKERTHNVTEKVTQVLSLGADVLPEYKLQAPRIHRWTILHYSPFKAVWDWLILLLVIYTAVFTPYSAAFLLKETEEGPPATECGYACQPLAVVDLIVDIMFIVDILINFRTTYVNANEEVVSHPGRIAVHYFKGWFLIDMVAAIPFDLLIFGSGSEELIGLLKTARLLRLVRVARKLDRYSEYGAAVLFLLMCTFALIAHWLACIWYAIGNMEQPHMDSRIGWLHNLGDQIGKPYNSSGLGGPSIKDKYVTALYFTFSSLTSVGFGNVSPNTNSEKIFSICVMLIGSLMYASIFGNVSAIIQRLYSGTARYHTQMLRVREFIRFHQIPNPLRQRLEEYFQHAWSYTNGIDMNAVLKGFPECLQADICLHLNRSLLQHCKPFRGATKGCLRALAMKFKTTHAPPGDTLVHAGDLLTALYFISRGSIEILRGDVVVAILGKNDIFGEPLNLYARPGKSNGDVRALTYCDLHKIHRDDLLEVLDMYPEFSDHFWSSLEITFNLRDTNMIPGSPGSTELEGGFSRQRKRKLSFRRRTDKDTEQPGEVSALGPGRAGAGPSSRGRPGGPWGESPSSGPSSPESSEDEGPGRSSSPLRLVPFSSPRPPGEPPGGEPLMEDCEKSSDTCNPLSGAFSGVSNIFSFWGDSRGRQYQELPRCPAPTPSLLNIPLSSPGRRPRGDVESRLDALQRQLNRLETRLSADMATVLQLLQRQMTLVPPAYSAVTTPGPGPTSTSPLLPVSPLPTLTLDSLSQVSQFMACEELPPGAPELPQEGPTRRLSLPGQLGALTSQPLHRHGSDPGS

SMILES	hERG current change (%, negative = inhibition) at 10uM
CC(=O)Oc1ccc(/C=C(\NC(=O)c2ccco2)C(=O)Nc2ccc(C(C)=O)cc2)cc1	-26.2%
CC(C)Oc1ccc(OCCn2c(=S)[nH]c3c(N)ncnc32)cc1	-2.49%
O=C1NC(=O)N(Cc2ccccc2)C(=O)/C1=C/N1CCCc2ccccc21	12.1%
CC(=O)Nc1ccc(OC(=O)c2ccco2)cc1	9.07%
Cn1c(=O)c2c(nc(Br)n2CC(=O)C23CC4CC(CC(C4)C2)C3)n(C)c1=O	-24.6%
Cc1nc(C(=O)O)nn1-c1ccc([N+](=O)[O-])cc1	2.84%
CC(C)[C@H](NC(=O)c1c(F)cccc1F)C(=O)OCC(=O)NC(=O)NC1CCCC1	3.2%
CCN1CCc2c(sc(NC(=O)Cc3ccccc3)c2C(=O)OC)C1.Cl	-51.5%
CC1(C)CC2(C)Nc3ccccc3N2C(=S)N1 (centres unmarked)	3.92%
Cc1cccc(C2NC(c3cccc(C)c3)C(C)C(=O)C2C)c1 (centres unmarked)	8.92%
Cc1cccc(Cc2c(C)[nH]c(=O)c(C#N)c2C)c1	-3.26%
Cc1cccc(NC(=S)N2CCN(S(=O)(=O)c3cccc(F)c3)CC2)c1	-16%
COc1ccc(Cc2nc3ccc(S(=O)(=O)N4CCOCC4)cc3[nH]2)cc1OC	19.7%
CCOC(=O)C1=C(C)NC(=O)C(C(N)=O)C12CCCCC2 (centres unmarked)	12.4%
COc1ccc(C2NCCc3cc(OC)c(OC)cc32)cc1OC (centres unmarked)	9.57%
Cc1cc2c(NCc3ccccc3)ncnc2s1.Cl	0.0717%
Cc1cc(C)cc(NC(=O)CSc2nc(=O)n3cc(C)ccc3n2)c1	-1.17%
CCCNC(=O)c1ccccc1C(=O)NCCC	-0.752%
O=C1c2ccccc2S(=O)(=O)N1CC1CC(c2ccccc2)=NO1 (centres unmarked)	-21.8%

SMILES	hERG current change (%, negative = inhibition) at 10uM
COc1cc2c(cc1OC)C(C)N(C(=O)/C=C/c1cc(OC)c(OC)c(OC)c1)CC2 (centres unmarked)	7.57%
CCn1c(=O)c2cc(C(=O)N3CCOCC3)sc2c2ccccc21	-23.5%
CCSc1nc2sc3c(c2c(=O)n1-c1ccccc1C)CCN(C)C3	11.5%
CCOc1[nH]n(-c2ccccc2)c(=O)c1C=NCc1cccnc1	-48.8%
FC(F)(F)c1nnc2ccc(NCc3ccccc3)nn12	8.9%
CCOC(=O)N1CCN(C(=O)c2cc3c(=O)n(C)c4ccccc4c3n2C)CC1	-8.71%
Nc1nc2ccccc2n1Cc1ccc(Cl)c(Cl)c1	-10.2%
COc1ccc(/C=c2\sc3nc(-c4ccccc4)c(-c4ccccc4)n3c2=O)cc1OC	11.4%
COc1cccc(NC(=O)NCc2ccc(F)cc2)c1	-5.73%
O=C(c1ccccc1)N1CCCCCC1	29.1%
CCN(CCO)c1ccc(N=Cc2c(O)n(C)c(=S)[nH]c2=O)cc1	-1.04%
Cc1ccc(S(=O)(=O)Nc2cc(C(=O)NCCN3CCCC3)ccc2N2CCCCC2)cc1	-40.3%
CCCc1ccc(S(=O)(=O)NCCc2ccncc2)cc1	-25.5%
O=C(NC1CCCCCC1)c1nc2ncccn2n1	16.7%
COc1cc(C)nc(NS(=O)(=O)c2ccccc2Cl)n1	12.7%
Cc1cc(C=C2C(=O)CCCC2=O)c(C)n1-c1ccccc1	-12.5%
CCOC(=O)Cc1csc(NC(=O)COc2ccccc2OCC)n1	-24.2%
COc1ccccc1N1CCN(S(=O)(=O)c2c(C)sc3ncn(CC(=O)NCCN(C)C)c(=O)c23)CC1	-1.05%
Oc1ccc(-c2nc(-c3ccc(F)cc3)c(-c3ccncc3)[nH]2)cc1	-3.35%

SMILES	hERG current change (%, negative = inhibition) at 10uM
COc1ccc(NC(=O)CSc2nc3cccnc3n2C)cc1	-12.4%
O=Cc1cn(-c2ccccc2)nc1-c1cc2c(ccc3ccccc32)oc1=O	3.09%
CSc1ccccc1NC(=O)CN1CCN(S(=O)(=O)c2ccccc2[N+](=O)[O-])CC1	-52.2%
COC(=O)c1ccc(/C=N/NC(=O)c2cccc(F)c2)cc1	6.65%
COc1ccccc1NS(=O)(=O)c1cccc(C(=O)N2CCN(Cc3ccc4c(c3)OCO4)CC2)c1	-61.4%
CCCOc1ccc(C(O)(CCN2CCCCC2)c2ccccc2OC)cc1.Cl (centres unmarked)	-29.9%
O=S(Cc1ccc(Br)cc1)Cc1nnc(SCc2ccc(Br)cc2)n1-c1ccccc1 (centres unmarked)	-2.14%
Cc1ccc(OCC(=O)Nc2ccc(F)cc2)c([N+](=O)[O-])n1	-9.47%
CC1(C)Cc2c(c(N3CCOCC3)nc3sc4c(NCc5ccccc5)nnnc4c23)CS1	-1.54%
Cc1cc(N2CCN(C)CC2)ccc1NC(=O)c1c2c(nc3ccccc13)CCN(Cc1ccccc1)C2	11.1%
CN1/C(=C\C(=O)Nc2cccc(Cl)c2)C(C)(C)c2ccccc21	7.17%
O=C(NCc1ccco1)C1CCCN(S(=O)(=O)c2cccc3nonc23)C1 (centres unmarked)	-4.03%
O=P(c1ccccc1)(c1ccccc1)C(O)c1ccncc1 (centres unmarked)	23.6%
CCOC(=O)c1c(C)[nH]c(C(=O)NCCN2CCOCC2)c1C	21.1%
COc1ccc(-c2cc(C(=O)Nc3c(C)n(C)n(-c4ccccc4)c3=O)no2)cc1	6.42%
COc1ccc(-c2c(C#N)c(SCC(N)=O)nc3c2CCCC3)cc1	-2.24%
COc1ccc(OC)c(NC(=O)CN2C(=O)CSc3ccc(S(=O)(=O)N4CCCC4)cc32)c1	-1.42%
NS(=O)(=O)c1cccc(NC(=O)CCN2C(=O)C3CCCCC3C2=O)c1 (centres unmarked)	6.41%
